These results are taken from PubChem BioAssay AID463173 (ICCB-Longwood Screening Facility, Harvard Medical School, 2010).

Screen size: about 52,000 compounds; about 1,700 (3.3%) were called active. No stated cut-off is given here; in the data, active means survival mostly below about 52% (no sharp cut-off); inactive means mostly above about 56%. The list shows a part of the results.

This test relates to Wild type. Put plainly: growth inhibition of S. aureus wild type versus tarO mutant, primary screen, teichoic acid synthesis inhibitors, RN4220, OD600 (AID 463173). The note with it: S. aureus RN4220 wild type/DeltatarO growth, OD600, 18 h, active compounds read low, screened at 18.75 µg/mL (by protocol).
With `COc1cccc(NC(=O)/C(C#N)=C/c2ccc(-c3ccc(C)cc3)o2)c1`, the survival is inactive: 58%.
Turning to `Cc1ccc2cc3cc(C(=O)N4CCN(c5ccccc5)CC4)sc3nc2c1`, the survival was inactive: 84%.
Consider `O=C(Cn1cc(S(=O)(=O)Cc2cccc(Cl)c2)c2ccccc21)NCc1ccccc1Cl`, for which the survival is inactive: 77%.
As to `Cc1ccc(S(=O)(=O)Nc2cccc(-c3ccc(N4CCCC4)nn3)c2)c(C)c1`, the survival was inactive: 63%.
The result for `CCCNc1ncnc2c1c(-c1ccccc1)cn2-c1ccccc1` reads inactive: 71%; that for `CCn1cc(C(=O)N2CCN(c3cccc(C)c3)C(C)C2)c(=O)c2cc(S(=O)(=O)N3CCOCC3)ccc21` (stereo not drawn), inactive: 90%.
Turning to `Nc1nc(Nc2cccc3ccccc23)nc(C2CCCC2=O)n1` (stereo not drawn), the survival was inactive: 102%.
In the case of `COc1ccc(-c2nsc(NC(=O)c3oc4ccccc4c3C)n2)cc1`, the survival was inactive: 99%.
For `CN(C)c1ccc(CNC(=O)CCCN2C(=O)CCn3nc(-c4cn(C)c5ccccc45)cc32)cc1`, the survival was active: -1%.
The value for `COCCn1c(C)cc(O)c(C(c2ccccc2Cl)N2CCCCC2)c1=O` (stereo not drawn) was inactive: 73%; that for `CCCN1CCN(CCCNC(=O)c2cc3c(s2)-c2ccccc2OC3)CC1` was inactive: 83%.
In the case of `N#Cc1ccccc1OCC(=O)N1CCN(c2ccccc2)CC1`, the survival is inactive: 82%.
As to `Cc1coc2c(C)c3oc(=O)c(CCC(=O)N4CCCCC4)c(C)c3cc12`, the survival is inactive: 67%.
For `Cc1nc2c(c(C)c1CCC(=O)Nc1ccc(F)cc1)c(=O)n(C)c(=O)n2C`, the survival was inactive: 73%.
The result for `Cc1c(NS(=O)(=O)c2ccc(Cl)cc2)c(=O)n(-c2ccccc2)n1C` reads inactive: 75%; that for `Cc1ccc(Cn2cc(CCC(=O)NCC(C)c3ccccc3)c3ccccc32)cc1` (stereo not drawn), inactive: 109%.
`COc1ccc(NC(=O)Cn2nnc(-c3nc(-c4ccncc4)no3)c2N)cc1OC`: the survival is inactive: 92%.
Turning to `Cc1cccc(C)c1NC(=O)C1CCCN1S(=O)(=O)c1cccc2nsnc12` (stereo not drawn), the survival was inactive: 67%.
Turning to `COc1ccc(C2=NN(CCC(=O)NCCc3ccccc3)C(=O)CC2)cc1`, the survival was inactive: 127%.
On to `COCCn1c(C)cc(O)c(C(c2ccccc2F)N2CCN(c3ccccc3)CC2)c1=O` (stereo not drawn), for which the survival was inactive: 71%.
Turning to `COc1ccccc1CCNC(=O)C(=O)NCC(c1cccnc1)N1CCN(c2ccccc2)CC1` (stereo not drawn), the survival was inactive: 82%.
For `CCc1cccc(-n2nnc(S(=O)(=O)c3ccc(OC)cc3)c2C)c1`, the survival was inactive: 81%.
Regarding `Cc1ccc(NC(=O)c2cccc(NC(=O)N3CCSc4ncccc43)c2)cc1F`, the survival is inactive: 92%.
`CCOc1ccc(CNC(=O)c2ccc(NC(=O)N3CCSc4ncccc43)cc2)cc1`: the survival was inactive: 63%.
Take `CCN(CC)CCCNC(=O)CCc1c(C)nc2c(c1C)c(=O)n(C)c(=O)n2C`: the survival was inactive: 76%.
In the case of `COc1ccc(-c2cc(C(F)(F)F)nc(SCC(=O)Nc3ccc(O)cc3)n2)cc1OC`, the survival is inactive: 75%.
As for `Cc1ccc(C)c(NC(=O)c2cnc3sc(N4CCOCC4)nn3c2=O)c1`, the survival was inactive: 135%.
On to `CCCN1C(=O)c2oc3cc(C)cc(C)c3c(=O)c2C1c1ccc(F)cc1` (stereo not drawn), for which the survival was inactive: 82%.
Take `COc1ccc(-c2nc3cc(NC(=O)COc4ccc(C)c(C)c4)ccc3o2)cc1`: the survival was inactive: 84%.
The result for `Cc1cc(=O)c2cc(C(=O)Nc3cccc(C)c3C)ccc2[nH]1` reads inactive: 85%; that for `CCOC(=O)c1ccc(NC(=O)CN2C(=O)c3cccnc3Sc3ccccc32)cc1`, inactive: 66%.
Regarding `COc1ccc(Nc2ncc(C(=O)N3CCN(c4ccccc4OC)CC3)c3ccccc23)cc1`, the survival was inactive: 78%.
As to `CCOc1ccc(C(=O)NCCc2sc(-c3ccc(F)cc3)nc2C)cc1`, the survival is inactive: 97%.
Take `Cc1ccc(S(=O)(=O)Cn2nnnc2C(C(C)C)N2CCSCC2)cc1` (stereo not drawn): the survival was inactive: 113%.
On to `Cc1ccccc1Cn1c(=O)n(CCCCCC(=O)NCc2ccc3c(c2)OCO3)c(=O)c2sccc21`, for which the survival is inactive: 95%.
The value for `O=C(Cn1ncc2c3ccccc3n(Cc3cccc(Cl)c3)c2c1=O)NCCC1=CCCCC1` was inactive: 82%.
On to `Nc1ccc2c(c1)C(=O)N(CCCCN1C(=O)c3ccc(N)cc3C1=O)C2=O`, for which the survival is inactive: 111%.
For `COc1ccc(NC(=O)CSc2ncc3c(n2)-c2ccccc2N(C)S3(=O)=O)cc1Cl`, the survival is inactive: 101%.
As for `CCN(CC)c1ccc(CNS(=O)(=O)c2cc3c(cc2C)NC(=O)CO3)cc1`, the survival was inactive: 73%.
For the compound `CCOc1ccc(NC(=O)Nc2c[nH]c(=O)[nH]c2=O)cc1`, the survival is inactive: 81%.
For the compound `Cn1c(SCc2ccccc2Cl)nc(=O)c2c1NC(=O)CC2c1cc(F)ccc1F` (stereo not drawn), the survival was inactive: 75%.
For `CCOC(=O)c1ccccc1NC(=O)Cn1c(=O)n(-c2ccc(CC)cc2)c(=O)c2c(C)c(C(=O)N(C)C)sc21`, the survival was active: -2%.
For the compound `CCOc1ccccc1CNC(=O)c1ccc2c(c1)nc1n2CCC(C)C1` (stereo not drawn), the survival is inactive: 127%.
`Cc1ccc(S(=O)(=O)N2Cc3ccccc3CC2C(=O)N2CCCCC2)cc1` (stereo not drawn): the survival was inactive: 112%.
The result for `Cc1ccc(CSc2cn(CCNC(=O)c3cccs3)c3ccccc23)cc1` reads inactive: 62%.
For the compound `Cc1ccc(N2CC(NC(=O)c3ccccc3Br)CC2=O)cc1` (stereo not drawn), the survival was inactive: 76%.
The value for `O=C(Nc1ccc(F)c(Cl)c1)C1CCN(S(=O)(=O)c2ccc3c(c2)CCCN3C(=O)C2CCC2)CC1` was inactive: 67%; that for `CC(=O)c1ccc(N2C(=O)Nc3ccccc3S2(=O)=O)cc1` was inactive: 111%; that for `Cc1nccn1S(=O)(=O)c1c(C(C)C)cc(C(C)C)cc1C(C)C` was inactive: 119%.
With `CC(C)Sc1nc2sc3c(c2c(=O)n1-c1ccccc1)CCCC3`, the survival was active: -2%.
The result for `Nc1ncc(S(=O)(=O)Nc2ccc(OC(F)(F)F)cc2)cn1` reads inactive: 63%.
Regarding `O=C(Cn1c(SCC(=O)Nc2ccc(F)cc2)nc2ccccc21)NCc1ccc(Cl)cc1`, the survival was inactive: 85%.
Turning to `O=C(Nc1ccc(F)cc1)c1ccc2c(c1)NC(=O)c1ccccc1S2`, the survival is inactive: 54%.
Take `CN(Cc1ccco1)S(=O)(=O)c1nnc(NC(=O)c2ccccc2)s1`: the survival is inactive: 28%.
Regarding `Cc1cccc(-c2noc(-c3ccc(NCc4cccnc4)c([N+](=O)[O-])c3)n2)c1`, the survival was inactive: 81%.
For the compound `Nc1nonc1-c1nc2ccccc2n1CC(=O)Nc1cccc(Cl)c1Cl`, the survival was inactive: 85%.
The result for `CCc1cccc(NC(=O)Cn2ccn3nc(-c4ccc(OC)c(OC)c4)cc3c2=O)c1` reads inactive: 82%; that for `CCc1ccc(NS(=O)(=O)c2c(-c3ccccc3)csc2C(=O)OC)cc1`, inactive: 77%; that for `Cc1cc(NCc2ccc(Cl)cc2)n2cnnc2n1`, inactive: 94%.
For the compound `COc1ccccc1N(CC(=O)Nc1cc(C)cc(C)c1)S(C)(=O)=O`, the survival is inactive: 87%.
In the case of `O=C(Nc1nnc(S(=O)(=O)N2CCCCCC2)s1)c1ccccc1`, the survival was inactive: 48%.
As for `CCC(=O)Nc1cccc(OCc2cc(=O)n3cc(C)ccc3n2)c1`, the survival was inactive: 47%.
Consider `COC(=O)c1ccc(Oc2nc3c(c(=O)n(C)c(=O)n3C)n2Cc2ccc(Cl)c(Cl)c2)cc1`, for which the survival is inactive: 135%.
The result for `CCOC(=O)c1cc2ccc(O)cc2oc1=O` reads inactive: 103%.
Take `Cc1ccccc1NC(=O)Cn1cc(S(=O)(=O)N2CCCC2)c(S(=O)(=O)N2CCCC2)c1`: the survival was inactive: 72%.
The result for `CC1=C(C(=O)Nc2ccccc2)C(c2ccccn2)n2nc(SCc3ccccc3Cl)nc2N1` (stereo not drawn) reads inactive: 148%; that for `CC(C)n1c(C(=O)OC(C(=O)NCc2ccco2)c2cccnc2)cc2sccc21` (stereo not drawn), inactive: 98%; that for `CCOc1ccc(NC(=O)c2nnn(-c3ccc(F)c(Cl)c3)c2C)cc1`, inactive: 90%.
Take `COc1ccc(NC(=O)c2oc3ccccc3c2NC(=O)C23CC4CC(CC(C4)C2)C3)cc1`: the survival is inactive: 15%.
Turning to `COc1ccc(OC)c(NC(=O)c2c(NCc3ccc(N(C)C)cc3)sc3c2CCCC3)c1`, the survival is inactive: 135%.
On to `COc1ccc(S(=O)(=O)N(CC(=O)Nc2ccc3c(c2)OCO3)c2ccc(C)cc2)cc1`, for which the survival was inactive: 68%.
Regarding `O=C(NCc1ccccc1Cl)c1ccc(NC(=O)N2CCSc3ccccc32)cc1`, the survival is inactive: 67%.
Regarding `COc1cc(OC)cc(C(=O)Nc2ccc3c(c2)n(C)c(=O)c(=O)n3C)c1`, the survival is inactive: 81%.
With `Cc1ccc(OCc2cc(=O)n3c4c(sc3n2)CCCC4)cc1C`, the survival was inactive: 80%.
The result for `O=C(NCCCc1ccccc1)c1nn(-c2ccccc2)nc1CO` reads inactive: 92%; that for `Cn1cc(S(=O)(=O)N2CCCCC2)cc1C(=O)Nc1ccc(OC(F)(F)F)cc1`, inactive: 91%; that for `O=C(Cn1cc(S(=O)(=O)c2ccccc2)c(=O)c2cc3c(cc21)OCO3)Nc1ccccc1`, inactive: 133%.
On to `Cc1nc2nc(SCC(=O)NC3CCC(C)CC3)nn2c(C)c1Cc1ccccc1Cl` (stereo not drawn), for which the survival was inactive: 82%.
As to `Cc1ccc(S(=O)(=O)C(CNC(=O)c2ccc(C(F)(F)F)cc2)c2ccco2)cc1` (stereo not drawn), the survival was inactive: 134%.
Consider `Cc1noc(-c2ccc(-c3noc(-c4cccc(Cl)c4)n3)cc2)n1`, for which the survival is inactive: 75%.
The value for `CCc1ccc2occ(CC(=O)Nc3sc4c(c3C(=O)NCCOC)CCCC4)c2c1` was inactive: 84%; that for `CCn1cc2nc(SCc3cccc(C)c3)n(CCc3ccccc3)c(=O)c2n1` was inactive: 83%.
`Cc1nc2c(-c3ccccc3)c(C)nn2c(C)c1CCC(=O)NCc1ccccc1`: the survival is inactive: 76%.
In the case of `Cc1ccc(S(=O)(=O)n2nc(-c3ccco3)nc2NCc2ccc(N(C)C)cc2)cc1`, the survival was inactive: 95%.
`CCOC(=O)c1ccc(NC(=O)CCC(=O)N2CCSc3ccccc32)cc1`: the survival was inactive: 91%.
The result for `CCc1ccc2oc(-c3ccc(C)c(NC(=O)c4ccc(C#N)cc4F)c3)nc2c1` reads inactive: 72%; that for `CCOC(=O)C1CCCN(C(=O)c2ccc3c(c2)N(Cc2ccccc2F)C(=O)c2ccccc2S3=O)C1` (stereo not drawn), inactive: 90%.
Turning to `COc1ccc(CCNC(=O)CCn2c(=O)c3ccccc3n(CC(=O)Nc3cc(Cl)ccc3C)c2=O)cc1OC`, the survival was inactive: 76%.
